Measured values published in PubChem BioAssay AID488969 (Vanderbilt High Throughput Screening Facility, 2010).
Whole data set: some 110,000 compounds, median “z-score” near -0.1, cut for the highest 2% near 2. This is one part of the list. Activity calls are given as the source filed them.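 How the source made its calls: active means z-score in the third read window above 3 or below -3; inactive means the rest.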

target: Metabotropic glutamate receptor 8 (Rattus norvegicus) (UniProt P70579); assay: rat mGluR8 modulators via GIRK flux, primary screen, cell-based, thallium flux, HTS (AID 488969); settings: HEK293 rat mGluR8, GIRK (G protein-gated inwardly rectifying potassium channel) thallium flux, FluoZin2; at 10 µM; stronger effect = higher value; submaximal glutamate (EC20) added with thallium
Sequence of UniProt P70579 (P70579 whole entry, looked up): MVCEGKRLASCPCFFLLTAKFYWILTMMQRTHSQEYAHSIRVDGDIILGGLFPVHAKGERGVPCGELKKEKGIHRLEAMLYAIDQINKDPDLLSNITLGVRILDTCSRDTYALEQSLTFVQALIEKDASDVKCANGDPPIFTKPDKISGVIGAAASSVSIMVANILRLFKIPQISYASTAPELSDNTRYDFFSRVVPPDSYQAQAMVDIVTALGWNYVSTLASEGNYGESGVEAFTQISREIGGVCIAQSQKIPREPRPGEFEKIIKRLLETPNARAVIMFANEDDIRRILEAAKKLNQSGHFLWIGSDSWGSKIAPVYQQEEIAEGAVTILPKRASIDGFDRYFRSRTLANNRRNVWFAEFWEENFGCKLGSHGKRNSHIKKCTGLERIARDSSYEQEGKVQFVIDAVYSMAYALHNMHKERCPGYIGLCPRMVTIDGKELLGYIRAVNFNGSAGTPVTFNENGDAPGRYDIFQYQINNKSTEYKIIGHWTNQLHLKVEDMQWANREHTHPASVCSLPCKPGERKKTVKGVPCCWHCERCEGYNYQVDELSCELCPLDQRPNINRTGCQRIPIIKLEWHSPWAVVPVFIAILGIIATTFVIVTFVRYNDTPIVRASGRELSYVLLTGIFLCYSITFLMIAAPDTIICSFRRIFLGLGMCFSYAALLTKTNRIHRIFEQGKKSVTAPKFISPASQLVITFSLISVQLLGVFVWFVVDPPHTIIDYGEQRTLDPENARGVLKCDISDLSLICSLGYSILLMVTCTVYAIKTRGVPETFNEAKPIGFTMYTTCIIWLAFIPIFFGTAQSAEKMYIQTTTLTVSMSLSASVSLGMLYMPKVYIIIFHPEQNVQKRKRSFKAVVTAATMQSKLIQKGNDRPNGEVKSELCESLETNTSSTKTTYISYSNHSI

| Compound | z-score |
| --- | --- |
| CC(=O)NC(Cc1ccccc1)C(=O)N1CCN(C(=O)c2ccco2)CC1 (stereo not drawn) | -0.125 |
| CC(C)(C)C1CCC2(CC1)C(Nc1cccc(C(F)(F)F)c1)=NC(=S)N2CC#N (stereo not drawn) | 2.58 |
| CCc1ccc(NC(=O)C(=O)NCCN2CCN(C(=O)c3ccco3)CC2)cc1 | -0.229 |
| Cc1cc(S(=O)(=O)Nc2nc(CN3CCOCC3)nc3sc4c(c23)CCCC4)ccc1F | -2.11 |
| O=C(NCCN1CCOCC1)c1c(F)c(F)c(F)c(F)c1F | -0.171 |
| c1ccc(-c2csc(NC3=NCCCCC3)n2)cc1 | -0.237 |
| COc1ccccc1N(CC(O)COc1ccc(C)cc1)S(=O)(=O)c1ccccc1 (stereo not drawn) | -0.199 |
| CC(C)CCN1C(=O)c2ccccc2C1C(=O)NCc1cccnc1 (stereo not drawn) | -0.24 |
| CCOC(=O)N1CCN(C(=S)NCCOC)CC1 | -0.256 |
| CCOCc1cnc(C)nc1NCC(=O)c1c(C)[nH]c2cc(C)ccc12 | -0.201 |
| COC(=O)CN(c1cc(C(F)(F)F)ccc1Cl)S(C)(=O)=O | -0.196 |
| S=c1[nH]nc(-c2ccccc2)n1/N=C/C=C/c1ccco1 | 0.28 |
| COc1ccc(Nc2ccnc(Nc3ccc(OC)cc3)n2)cc1 | 1.04 |
| COc1ccc(OC)c(/C=N/NC(=O)c2cc[n+](Cc3ccccc3)cc2)c1 | -0.0886 |
| CCOC(=O)/C(C#N)=C\c1cc(C)n(-c2ccccc2)c1C | 0.0173 |
| CCCCNC(=S)NNC(=O)c1csc(C(C)C)c1 | 0.133 |
| O=C(CN1C(=O)CC(c2ccco2)Sc2ccccc21)Nc1ccccc1F (stereo not drawn) | 0.0909 |
| CC(=O)N1CCN(c2nc(-c3ccco3)c3c(c2C#N)CC(C)(C)SC3)CC1 | -0.491 |
| CCCCN(C(=O)NC(=O)Nc1ccc(C)cn1)S(C)(=O)=O | 0.0807 |
| COc1ccc(CN2CCOCC2)cc1 | -0.0956 |
| Cc1ccc(C)c(-n2c3nc(=O)[nH]c(=O)c-3cc3cc([N+](=O)[O-])ccc32)c1 | -0.477 |
| COc1ccccc1CNC(=O)CCn1c(=O)[nH]c2ccsc2c1=O | -0.264 |

| Compound | z-score |
| --- | --- |
| CC(=O)Oc1ccc2c(C)cc(=O)oc2c1 | -0.164 |
| Cc1ccc(N2C(=O)c3ccccc3C2Nc2ccc(S(=O)(=O)N3CCOCC3)cc2)nc1 (stereo not drawn) | -0.444 |
| O=C(Cn1nnc2c(sc3nc4c(c(-c5ccccc5)c32)CCC4)c1=O)c1ccccc1 | -0.0441 |
| Cc1ccccc1NC(=O)C1CCCN1S(=O)(=O)c1cccc2cccnc12 (stereo not drawn) | -0.0844 |
| Cn1c(CN2CCCCC2)nc2cc(NC(=O)c3ccccc3)ccc21 | 0.236 |
| CNc1cc(CS(=O)c2ccccc2)nc(-c2ccccc2)n1 (stereo not drawn) | -0.156 |
| CC(C(=O)Nc1ccc(F)c(F)c1F)N(C)CC(=O)Nc1ccccc1Br (stereo not drawn) | -0.465 |
| C=C(C)c1cccc(C(C)(C)NC(=O)Nc2cc(C)ccc2OC)c1 | 0.222 |
| CCOc1ccccc1C1C(C#N)=C(N)Oc2cc(C)n(C)c(=O)c21 (stereo not drawn) | -0.0841 |
| O=C(COC(=O)C1CC(=O)N(c2ccc3c(c2)OCCO3)C1)NC1CCCc2ccccc21 (stereo not drawn) | -1.03 |
| CCC(C)n1c(SCC(=O)NC(=O)Nc2ccc3c(c2)OCCO3)nc2ccccc2c1=O (stereo not drawn) | active: 4.47 |
| Cc1ccc(S(=O)(=O)NNC(=O)c2cnn(-c3ccccc3)c2-n2cccc2)cc1 | 0.0647 |
| COc1ccccc1NC(=O)c1ccc(NC(=O)COC(=O)C2(C)CC2(Cl)Cl)cc1 (stereo not drawn) | -0.279 |
| COc1ccc(Cc2nnc(SC)[nH]c2=O)cc1OC | 0.497 |
| COc1cccc(N2CCN(C(=O)c3ccc(N4C(=O)NC5CC4(C)Oc4ccccc45)cc3)CC2)c1 (stereo not drawn) | -0.29 |
| Cc1ccccc1C(=O)NC(=S)Nc1ccc(S(=O)(=O)N2CCN(C)CC2)cc1 | 0.142 |
| Cc1ccc(S(=O)(=O)NCC(=O)OCC(=O)c2cccs2)cc1 | 0.396 |
| CCN(CC)S(=O)(=O)c1ccc(N=N/C(C(C)=O)=C(/C)O)cc1 | -0.116 |
| CC(=O)Nc1ccccc1OCC(=O)N(Cc1ccccc1)C(C)C | -0.264 |
| COc1ccccc1CNC(=O)C1CCCN(S(C)(=O)=O)C1 (stereo not drawn) | 0.086 |
| COC(=O)C1=C(C)N(C(C)C)C(=O)C1(NC(=O)C1CCCCC1)C(F)(F)F (stereo not drawn) | -0.495 |
| CCCCCCOC(=O)C(C#N)c1nc2ccccc2nc1N1CCOCC1 (stereo not drawn) | 0.194 |

| Compound | z-score |
| --- | --- |
| N#CCC(CNc1ncc(C(F)(F)F)cc1Cl)OC(=O)c1ccc(Cl)cc1Cl (stereo not drawn) | 0.0061 |
| CCC(C)NC(=O)c1ccc(N2CCC3(CC2)OCCO3)c([N+](=O)[O-])c1 (stereo not drawn) | 0.408 |
| Cc1cc(C)n2nc(/C(C#N)=C/c3ccccc3)c(C#N)c2n1 | -0.0817 |
| Cn1c(N)c(C#N)c2c(c1=S)COC(C)(C)C2 | -0.21 |
| Cc1ccc(C)c(N2CCN(S(=O)(=O)c3ccc4c(c3)OCCO4)CC2)c1 | 1.01 |
| COc1ccc(Nc2ncc3c(n2)CC(c2ccc(OC)cc2)CC3=O)cc1 (stereo not drawn) | 0.611 |
| COCCNC(=O)CSc1nc(-c2ccc(OC)c(OC)c2)cc(C(F)(F)F)n1 | 0.253 |
| C=CCN1C(=O)C(Cc2ccccc2)SC1=Nc1ccc(C(=O)O)cc1 (stereo not drawn) | 0.936 |
| COc1ccc2cc(Br)ccc2c1CC(=O)NC(C)(C)C | -0.349 |
| CCCc1c(O)nc(SCc2ccccc2)[nH]c1=O | -0.0231 |
| Cc1cccc(C)c1NC(=S)NC(=O)CCc1ccccc1 | 1.73 |
| CCCc1cc(=O)n2[nH]c(NCc3c(Cl)cccc3Cl)nc2n1 | -0.888 |
| Cc1ccc(C(=O)Nc2ccc(N3CCOCC3)cc2)cc1 | 0.575 |
| CCS(=O)(=O)NCCc1cc2ccc(C)cc2[nH]c1=O | -0.165 |
| Cc1[nH]nc2c1C(c1cccc(O)c1)C1=C(CC(C)(C)CC1=O)N2 (stereo not drawn) | 0.201 |
| COc1ccc(C2=NOC(CN3C(=O)c4ccccc4S3(=O)=O)C2)cc1 (stereo not drawn) | -0.731 |
| CCOC(=O)Cn1c(=NC(=O)CSC(C)=O)sc2cc(F)ccc21 | 0.332 |
| CCNC(=O)c1c(NC(=O)c2cc(-c3cc(C)ccc3O)n[nH]2)sc2c1CCCC2 | 0.301 |
| C=CCCCCCCCCC(=O)NN | 0.048 |
| CN(C)S(=O)(=O)c1ccc(C(=O)Nc2ccc(S(=O)(=O)NC3=NCCCCC3)cc2)cc1 | -0.149 |
| Cc1ccc(CNC(=O)c2cccc(S(C)(=O)=O)c2)cc1 | 0.312 |
| Cc1nc(CCNC(=O)c2ccccc2)cs1 | -0.162 |

| Compound | z-score |
| --- | --- |
| COc1cc(/C=C(/NC(=O)c2ccccc2)C(=O)Nc2cccc(O)c2)c([N+](=O)[O-])cc1OC | 0.108 |
| C=CCNC(=O)C1CC(=O)N(c2ccc(OCC(=O)Nc3cccc(OC)c3)cc2)C1 (stereo not drawn) | 0.918 |
| Cn1cc(-c2nnnn2-c2cccc(C(F)(F)F)c2)c(C(F)(F)F)n1 | -0.143 |
| C=CCc1ccc(OCC(O)COCC)c(OC)c1 (stereo not drawn) | -0.12 |
| COc1ccnc(NCc2ccc(Cl)cc2)c1C#N | -0.29 |
| CC1/C(=N/O)CC(c2ccccc2)N(C)C1c1ccccc1 (stereo not drawn) | -0.0255 |
| CCOc1ccc2c3c(c(=O)oc2c1OCC)CCCC3 | -2.42 |
| COc1ccc(NC(=O)C2CCCN2S(=O)(=O)c2cccc3cccnc23)c(OC)c1 (stereo not drawn) | -0.556 |
| COc1ccc(O)c(/C=N/n2c(-c3ccco3)csc2=Nc2cccnc2)c1 | 0.368 |
| CCOc1ccc(/C=C/C(=O)Nc2ccc(C(N)=O)cc2)cc1OC | -0.0334 |
| COc1ccc(C(=O)Nc2ccc3oc(Cc4ccc(Cl)cc4)nc3c2)cc1OC | -0.247 |
| CCN(C(=O)Cc1ccc(Br)cc1)C1CCCCC1 | -0.936 |
| O=C(/C=C\Nc1ccccn1)c1ccccc1 | 0.299 |
| C=CCn1c(N)c(C(=O)Nc2cccc(C)c2)c2nc3ccccc3nc21 | 0.172 |
| CC(C)NS(=O)(=O)c1ccc(OCC(=O)Nc2cccc3ccccc23)cc1 | -0.13 |
| Cc1cc(NS(=O)(=O)c2ccc(Nc3nc(-c4ccc(O)cc4)cs3)cc2)no1 | -0.478 |
| C=CCCC(=O)Nc1nc(C)c(-c2csc(Nc3cc(Cl)ccc3OC)n2)s1 | -0.142 |
| CC(=O)N1CCC(Nc2ccc(C)cc2)CC1 | -0.368 |
| CN1C(=O)C2(OCC(COc3ccc(Cl)cc3)O2)c2ccccc21 (stereo not drawn) | 0.778 |
| CCC(=O)NCCCCCCNC(=O)CC | -0.156 |
| O=C(CCCn1c(=S)[nH]c2ccccc2c1=O)NC1CCCCC1 | 0.0447 |
| CCN1CCN(CCCCSc2ccccc2)CC1 | -0.152 |

| Compound | z-score |
| --- | --- |
| CCN(C(=O)c1cn(C)c(=O)c2cc(OC)c(OC)cc12)c1cc(OC)ccc1OC | -0.0628 |
| CC(C)NS(=O)(=O)c1ccc(CCC(=O)Nc2cc(Cl)ccc2Oc2ccccc2)cc1 | -0.183 |
| CC(Oc1ccc(Cl)cc1Cl)C(=O)NCCN1CCOCC1 (stereo not drawn) | 0.00607 |
| Cc1ccc(NC(=O)CN2C(=O)S/C(=C\C(=O)Nc3ccc(Cl)cc3)C2=O)cc1 | -0.0557 |
| CC1CCCCC1NC(=O)CO/N=C/c1ccccc1OC(F)F (stereo not drawn) | 0.053 |
| CC(CNC(=O)c1ccc(-c2ccccc2)cc1)CN(C)C (stereo not drawn) | 0.0655 |
| COc1ccc(-n2nnc3c(=O)n(Cc4cccc(C)c4)cnc32)cc1 | -0.0152 |
| Cc1ccc(Cl)cc1NC(=O)COC(=O)c1ccc(N2CCCC2)c([N+](=O)[O-])c1 | 0.277 |
| CC1(C)CC(=O)C(C=Nc2ccccc2Sc2ccccc2)=C(O)C1 | -0.747 |
| CC1CCN(C(=S)NC2CC3CCC2C3)CC1 (stereo not drawn) | -0.273 |
| CCOc1ccccc1C1C(C(N)=O)=C(C)Nc2nc(-c3ccc(OC)cc3)nn21 (stereo not drawn) | -0.81 |
| CCN(CC)S(=O)(=O)c1ccc(N2CCOCC2)c(NS(=O)(=O)c2ccc(C)cc2)c1 | -0.152 |
| Cc1ccc(/C(N)=N/OC(=O)/C=C/c2ccccc2)cc1 | -0.596 |
| Cc1nn(C)c2ncc(C(=O)c3cc(F)ccc3O)cc12 | -0.126 |
| COC(=O)c1ccc2c(=O)n(CC3CCCO3)c(SCC(=O)Nc3ccccc3Cl)nc2c1 (stereo not drawn) | -0.289 |
| Cc1ccc(CSc2nnc(C(F)(F)F)n2Cc2ccc(F)cc2)cc1 | -0.365 |
| O=C(C1CN(S(=O)(=O)c2ccccc2)CCN1S(=O)(=O)c1ccccc1)N1CCCCCC1 (stereo not drawn) | -0.374 |
| Cc1cccc(C)c1-n1c(SCC(=O)N2CC(=O)Nc3ccccc32)nc2ccccc2c1=O | -0.109 |
| COc1ccc(C(=O)OCC(=O)c2ccc(C3CCCCC3)cc2)cc1 | 0.0448 |
| COc1ccccc1C(=O)NNC(=S)NC(=O)c1sc2ccccc2c1Cl | active: 4.01 |
